# Hit rate of the full screen: of about 370,000 compounds, about 150 (0.041%) were called active. This list was built around the results that the source calls inconclusive (neither active nor inactive); the mix of calls is not that of the screen. Calls come from the whole dose curve; as a rule, active = well fitted inhibition curve with a large enough effect; inconclusive = small, poorly fitted or top-dose-only effect; inactive = flat fitted curve, though single readings scatter. Potencies of inconclusive entries are left out as doubtful fits.
# Molecular target: Beta-lactamase (Escherichia coli (strain K12)) (UniProt P00811)
# Experiment: qHTS Inhibitors of AmpC Beta-Lactamase (assay with detergent); note: nearly all actives have a fitted effect of over 25% in size;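 for activity change, negative = inhibition: 0% = no-compound wells and -100% = no-enzyme wells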
# Conditions: AmpC hydrolysis of nitrocefin, absorbance 480 nm, 0.01% Triton; activity change, negative = inhibition: at 114 µM (top of the series)
# In short: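 20 mM phosphate pH 7.0 + 0.01% (detergent screen) or 0.0001% Triton X-100; 5.3 nM AmpC reagent; cpd preinc 15 min RT; nitrocefin (800 uM stock) to start; A480 q20 s × 4 min; Activity was normalised to no-enzyme and no-compound control wells.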
# Potency is the fitted concentration of half-maximal effect; tags give direction and shape of the fitted curve.
# UniProt P00811, sequence (P00811 whole entry, looked up): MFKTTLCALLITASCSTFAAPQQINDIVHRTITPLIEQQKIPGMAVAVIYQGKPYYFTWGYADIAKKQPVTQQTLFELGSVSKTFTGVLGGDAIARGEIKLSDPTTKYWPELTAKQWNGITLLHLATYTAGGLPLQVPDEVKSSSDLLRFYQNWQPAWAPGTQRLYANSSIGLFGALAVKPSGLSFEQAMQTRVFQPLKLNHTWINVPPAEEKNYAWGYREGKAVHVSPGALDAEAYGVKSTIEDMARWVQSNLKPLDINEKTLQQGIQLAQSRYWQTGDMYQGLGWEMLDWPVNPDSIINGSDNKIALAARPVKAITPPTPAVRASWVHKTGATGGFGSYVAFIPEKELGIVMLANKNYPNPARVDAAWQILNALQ
SMILES,"activity change, negative = inhibition",Potency
O=C(CNC(=O)c1ccc(Cl)cc1)c1ccc(Cl)cc1,inactive: -13.1%,
CC(C)n1c(C(O)c2ccccc2)nc2ccccc21 (configuration not stated),,"inconclusive [inhibitor, full curve, poor fit]"
CN(C)c1ccc(-c2nc3ccccn3c2Nc2ccc3c(c2)OCCO3)cc1,,"inconclusive [inhibitor, single point]"
Cc1ccc(N(C(C)C(=O)O)S(=O)(=O)c2c(C)[nH]c(=O)[nH]c2=O)cc1 (configuration not stated),,"inconclusive [inhibitor, full curve]"
O=C(NCc1ccc(F)cc1)c1c(O)c2cccc3c2n(c1=O)CCC3,,"inconclusive [inhibitor, full curve, poor fit]"
COc1ccc(NC(=S)N(CCN2CCOCC2)Cc2ccccc2F)cc1,,"inconclusive [inhibitor, single point]"
Cc1c(S(=O)(=O)Nc2cccc3ccccc23)c(=O)n(C)c(=O)n1C,,"inconclusive [inhibitor, full curve, poor fit]"
O=C(NCCCN1CCCC1)c1ccc2c(c1)N(Cc1ccccc1F)C(=O)c1ccccc1S2(=O)=O,inactive: 1.56%,
CC(=NCCN1CCCCC1)c1c(O)n(-c2ccc(Cl)cc2)c(=O)[nH]c1=O,,"inconclusive [inhibitor, full curve, poor fit]"
O=C(c1ccc2ccccc2n1)N1CCN(c2ccccc2)CC1,inactive: -0.795%,
CCc1ccccc1N1CC(c2nc3ccccc3n2CCC2CCCCC2)CC1=O (configuration not stated),inactive: -4.09%,
O=C(COC(=O)C1CCCCC1C(=O)N1CCc2ccccc21)NCc1ccco1 (configuration not stated),,"inconclusive [inhibitor, partial curve, poor fit]"
CN(Cc1ccccc1)C(=O)c1ccc2c(c1)N(Cc1ccc(Cl)cc1)C(=O)c1ccccc1S2=O (configuration not stated),inactive: 0.419%,
O=C(c1cccc(N2C(=O)C3C4C=CC(C4)C3C2=O)c1)N1CCN(c2ccccc2Cl)CC1 (configuration not stated),,"inconclusive [inhibitor, full curve, poor fit]"
Cc1ccc(Oc2ncccc2/C=N/OCc2ccc(Cl)c(Cl)c2)cc1,,"inconclusive [inhibitor, partial curve, poor fit]"
Cc1ccc(S(=O)(=O)N(CCC(=O)Nc2ccc(OC(F)(F)F)cc2)c2ccccc2)cc1,,"inconclusive [inhibitor, full curve, poor fit]"
COc1ccccc1-c1cc2nc(C)c(CCC(=O)NC(C)CCc3ccco3)c(C)n2n1 (configuration not stated),,"inconclusive [inhibitor, full curve, poor fit]"
CCNc1oc(COc2ccccc2F)nc1C#N,,"inconclusive [inhibitor, partial curve, poor fit]"
O=C(CSCc1ccc(Cl)cc1Cl)Nc1c[nH]c(=O)[nH]c1=O,,"inconclusive [inhibitor, single point]"
Cc1ccc(N(C(=O)CNC(=O)c2ccco2)C(C(=O)NC2CCCC2)c2ccncc2)cc1C (configuration not stated),,"inconclusive [inhibitor, full curve, poor fit]"
CCOC(=O)C1=C(c2ccccc2)NC(=O)NC1c1ccc(OC)cc1OC (configuration not stated),,"inconclusive [inhibitor, full curve]"

SMILES,"activity change, negative = inhibition",Potency
CC(/C=C1\N=C(SCc2ccccc2Cl)SC1=O)=C\c1ccccc1,,"inconclusive [inhibitor, partial curve, poor fit]"
COc1ccc(NC(=S)Nc2cccc(S(=O)(=O)N3CCCCC3)c2)cc1,inactive: -10.9%,
O=C(COC(=O)COc1ccc2ccccc2c1)NC1CCCc2ccccc21 (configuration not stated),,"inconclusive [inhibitor, single point]"
COc1cccc(C2C(C(C)=O)=C(O)C(=O)N2Cc2ccco2)c1 (configuration not stated),inactive: -1.09%,
Cc1[nH]n(-c2ccccc2)c(=O)c1C=NCc1ccco1,inactive: 2.55%,
CN(C)c1nc(N)c2ncc(=S)[nH]c2n1,,"inconclusive [inhibitor, single point]"
Cc1ccc(Sc2nc3c(c(=O)[nH]c(=O)n3C)n2CCc2ccccc2)cc1,,"inconclusive [inhibitor, partial curve]"
Cc1cccc(-c2nc3scc(CCNC(=O)c4ccccc4Cl)n3n2)c1,inactive: 11.5%,
Cc1ccc(NC(=O)CSCC(=O)N(C)CC(=O)Nc2cccc3ccccc23)cc1,,"inconclusive [inhibitor, full curve, poor fit]"
Cc1cccc2cc(C3CC(c4ccco4)=NN3C(=O)CCC(=O)O)c(Cl)nc12 (configuration not stated),,"inconclusive [inhibitor, partial curve, poor fit]"
CCOc1ccc(NC(=O)COc2ccc3c(c2)OCO3)cc1,inactive: -7.59%,
CC(=O)N(c1cccc(C)c1)C1SC(=O)N(c2ccccc2)C1=O (configuration not stated),,"inconclusive [inhibitor, partial curve]"
Cc1nn(-c2ccccc2)c(C)c1C(=O)OCC(N)=O,,"inconclusive [inhibitor, partial curve, poor fit]"
O=C1CSc2ccc(S(=O)(=O)NCc3ccccc3)cc2N1,,"inconclusive [inhibitor, partial curve, poor fit]"
CN(Cc1ccccc1)C(=O)CN1C(=O)NC(C)(c2ccc(Cl)cc2)C1=O (configuration not stated),,"inconclusive [inhibitor, full curve]"
COc1ccc(Cc2nnc(N/N=C/c3ccc(O)cc3O)[nH]c2=O)cc1OC,inactive: 4.93%,
C=CCNC(=O)c1ccc(N(Cc2ccccc2)S(C)(=O)=O)cc1,,"inconclusive [inhibitor, full curve, poor fit]"
Cc1cc2[nH]ncc2cc1NC(N)=S,,"inconclusive [inhibitor, full curve]"
Cc1ccc(NC(=O)C2C3C=CC4(O3)C2C(=O)N(CCCN2CCCCC2)C4C(=O)NC2CCCCC2)cc1C (configuration not stated),,"inconclusive [inhibitor, full curve, poor fit]"
CCc1nnc(SCC(=O)Nc2ccc3c(c2)OCO3)n1CC,inactive: 6e-08%,
CC1=C(C(=O)OC(C)C)C(c2ccc(O)cc2)NC(=O)N1 (configuration not stated),,"inconclusive [inhibitor, partial curve, poor fit]"
